PubChem BioAssay AID686970 (National Center for Advancing Translational Sciences (NCATS), 2013)
In all, about 360,000 compounds went through this assay and about 6,000 (1.7%) were called active. This list was built around the results that the source calls inconclusive (neither active nor inactive); the mix of calls is not that of the screen. The call rests on the fitted dose curve; in most records, active means well fitted cell-killing curve with a large enough effect; inconclusive means small, poorly fitted or top-dose-only effect, or effect the other way; inactive means flat fitted curve, though single readings scatter. No potency is given beside an inconclusive call; the fits are too rough.
Potency means the concentration at half of the fitted maximal effect; tags describe the fitted curve by direction and shape.

Assay: qHTS for induction of synthetic lethality in tumor cells producing 2HG: qHTS for the HT-1080-NT fibrosarcoma cell line;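 further: NT is the 2HG producing partner of a matched IDH1 knockdown line; nearly all actives have a fitted effect of over 55% in size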;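 on activity, negative = less viability: 0% = DMSO-treated cells and -100% = media-only wells without cells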
Conditions: HT-1080-NT fibrosarcoma viability, CellTiter-Glo ATP luminescence, 48 h; activity, negative = less viability: at 46.1 µM (top of the series) unless noted
Outline: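 Compounds were tested in concentration-response format on HT-1080-NT cells for 48 hours at 37 degrees C. Cell viability came from CellTiter-Glo luminescence; curves were classified by r2, response magnitude and activity.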
In the case of `CCCC1NC(=O)c2cccnc2-n2c1nc1ccc(Br)cc1c2=O` (stereo not given), the Potency is reported as “inactive”. With `CCOC(=O)C1CCCN(C(=S)Nc2ccc(Nc3ccccc3)cc2)C1` (stereo not given) the Potency was “inactive”. With `COc1ccc(/C=C/C(=O)Nc2ccc(C)cc2)cc1S(=O)(=O)N1CCOCC1` the Potency was inconclusive [cytotoxic, single point]. For `CN(CCCNC(=O)c1ccccc1F)CCCNC(=O)c1ccccc1F`, the Potency was “inactive”. With `COc1ccccc1C1NC(=O)NC(C)=C1C(=O)OC1CCCCC1` (stereo not given) the Potency was “inactive”. In the case of `COc1ccc(-c2cccc([C@H]3[C@@H]4C=CC[C@@H](C)[C@@H]4C(=O)N3Cc3ccccc3)c2)cc1`, the Potency is reported as inconclusive [cytotoxic, single point]. In the case of `CN1OC[C@@H]2CN(C(=O)CCc3ccccc3)[C@H](c3cccc(-c4ccc(C#N)cc4)c3)C[C@@H]21`, the Potency is reported as “inactive”. In the case of `Cc1cccc(C(=O)N2CCc3cc(-c4csc(NC(=O)CN5CCCC5)n4)ccc32)c1`, the Potency is reported as active: 20.6 µM. For `COc1ccc(NC(=O)c2ccc(COc3ccc(C)cc3)o2)cc1`, the Potency was “inactive”. With `CN(C)CCCNC(=S)N(Cc1cccs1)Cc1cc2cc3c(cc2[nH]c1=O)OCCO3` the Potency was “inactive”. With `COc1ccccc1CCC(=O)Nc1ccc2c(c1)c(=O)n(C)n2Cc1ccc(F)cc1` the Potency was active: 3.26 µM. In the case of `COc1ccc(OC)c(C2C3=C(COC3=O)Nc3cc4c(cc32)OCO4)c1` (stereo not given), the Potency is reported as active: 0.651 µM. For `C[C@@H]1CN([C@@H](C)CO)C(=O)c2cc(NC(=O)CCC(F)(F)F)ccc2O[C@H]1CN(C)Cc1ccc(Cl)c(Cl)c1`, the Potency was inconclusive [cytotoxic, single point]. For `COc1ccc(CCNC(=O)c2ccc(=O)[nH]c2)cc1OC`, the Potency was “inactive”. In the case of `CC(C)NC(=S)N/N=C/c1c[nH]c2ccccc12`, the Potency is reported as “inactive”. In the case of `CCCCOc1ccc(S(=O)(=O)Nc2ccc(NC(C)=O)cc2)cc1`, the Potency is reported as “inactive”. With `CSc1ccccc1NC(=O)C1=COCCO1` the Potency was “inactive”. In the case of `CC1CCCCN1C(=O)CSc1nc2ccsc2c(=O)n1Cc1ccccn1` (stereo not given), the Potency is reported as “inactive”. In the case of `COc1ccc2c(c1)/C(=C\c1cccc(/C=C3/C(=O)Nc4ccc(OC)cc43)n1)C(=O)N2`, the Potency is reported as active: 2.91 µM. For `Cc1ccc(-c2ccc3c(c2)O[C@H](CN(C)Cc2cncnc2)[C@@H](C)CN([C@H](C)CO)S3(=O)=O)cc1`, the Potency was “inactive”. In the case of `COc1ccc(C)cc1NC(=O)CN(c1ccc(F)cc1)S(C)(=O)=O`, the Potency is reported as “inactive”. In the case of `CCOC(=O)c1cnc(-n2nc(C)cc2C)nc1NC`, the Potency is reported as active: 7.08 µM. In the case of `O=C(c1ccc(COc2c(F)c(F)cc(F)c2F)o1)N1CCN(c2ccccc2)CC1`, the Potency is reported as inconclusive [cytotoxic, single point]. For `Cc1ccc(-n2cc(CN(C)Cc3nccn3C)c(-c3ccc(F)cc3)n2)cc1`, the Potency was inconclusive [cytotoxic, partial curve]. With `C=CCN(CC=C)S(=O)(=O)c1ccc(C(=O)Nc2nc3c(s2)CCc2ccccc2-3)cc1` the Potency was inconclusive [cytotoxic, partial curve]. In the case of `O=C(c1cc([N+](=O)[O-])ccc1N1CCOCC1)N1CCCC1`, the Potency is reported as inconclusive [rising, single point]. With `Cc1cccc(/C=N\NC(=O)c2ccc(Cl)cc2)c1O` the Potency was inconclusive [cytotoxic, partial curve]. In the case of `COc1ccc(NC(=O)Nc2ccccc2OC)cc1`, the Potency is reported as inconclusive [cytotoxic, single point]. In the case of `CCOC(=O)C1=C(C)NC2=C(C(=O)OC2)C1c1ccccc1` (stereo not given), the Potency is reported as inconclusive [cytotoxic, partial curve]. For `CCn1c(-c2nn(C)c(C)c2Cl)n[nH]c1=S`, the Potency was inconclusive [rising, single point]. In the case of `CNC(=O)c1ccc(-c2cc3onc(-c4ccccc4)c3c(=O)n2C)cc1`, the Potency is reported as “inactive”. For `O=C1C(NS(=O)(=O)c2cccs2)=C(N2CCOCC2)C(=O)c2ccccc21`, the Potency was inconclusive [cytotoxic, single point]. With `C[C@H]1CCC[C@]2(C)C[C@H]3OC(=O)C(CN4CCCCCC4)[C@H]3C=C12` (stereo not given in full) the Potency was active: 16.4 µM. With `Cc1ccnc(Nc2nc3ccccc3o2)n1` the Potency was inconclusive [cytotoxic, partial curve]. For `CSc1nsc2nc(=O)c(/C=C3\C(C)=Nc4ccccc43)c(N)n12`, the Potency was “inactive”. For `O=C(Cc1c(F)cccc1Cl)N1CCCC1`, the Potency was inconclusive [rising, single point]. With `COc1ccc(-c2cc(C(=O)N(C)CC(=O)Nc3ccccc3C(F)(F)F)c3ccccc3n2)cc1OC` the Potency was inconclusive [cytotoxic, partial curve]. With `O=C(Nc1ncccc1O)c1ccc(S(=O)(=O)Nc2ccccc2)cc1` the Potency was active: 13 µM. In the case of `Cc1cc(C)n2nc(-c3cccnc3)nc2n1`, the Potency is reported as “inactive”. In the case of `Cc1cc(C)cc(CC(Cc2nc3ccccc3[nH]2)c2nc3ccccc3[nH]2)c1` (stereo not given), the Potency is reported as active: 18.4 µM. With `C=CCSc1n[nH]c(-c2ccc(OCCC)cc2)n1` the Potency was active: 7.08 µM. In the case of `O=C(c1ccc(S(=O)(=O)Cc2ccccc2Cl)c([N+](=O)[O-])c1)N1CCOCC1`, the Potency is reported as inconclusive [cytotoxic, single point]. In the case of `Cc1nn(-c2nc3ccccc3s2)c(C)c1Oc1ccccc1O`, the Potency is reported as active: 12.6 µM. With `O=C(CN(C1CCCCC1)S(=O)(=O)c1ccc(F)cc1)NCC1CCCO1` (stereo not given) the Potency was active: 3.66 µM. For `CCCNC(=O)C12CCC(C)(c3nc4cc(C)c(C)cc4nc31)C2(C)C` (stereo not given), the Potency was “inactive”. For `NC(c1ccncc1)c1ccc(Cl)cc1` (stereo not given), the Potency was “inactive”. For `Cc1cccc(-n2c(C)nc3c(cnn3-c3ccc(F)cc3)c2=O)c1`, the Potency was “inactive”. For `Cc1c(O)c2c3c(cccc3c1O)C(=O)N(c1ccccc1)C2=O`, the Potency was inconclusive [cytotoxic, single point]. For `O=C(Cc1ccccc1)Nc1ccc(NC(=O)c2cccs2)cc1`, the Potency was inconclusive [cytotoxic, single point]. In the case of `COc1ccc(C(CNC(=O)c2ccc(S(=O)(=O)Nc3ccc(F)cc3)cc2)N(C)C)cc1` (stereo not given), the Potency is reported as inconclusive [cytotoxic, single point]. With `C=CCNc1nc(NCc2ccccc2)c(C#N)c2c1CN(C)CC2` the Potency was inconclusive [cytotoxic, single point]. With `Cc1nnc(NC(=O)CCC(=O)NCc2ccco2)s1` the Potency was “inactive”. For `CCC(C)(C)NC(=O)C(c1ccc(F)cc1)N(Cc1ccco1)C(=O)c1snc(C(N)=O)c1N` (stereo not given), the Potency was inconclusive [cytotoxic, partial curve]. With `CC(C)C[C@@H](CN1C(=O)C(=O)NC[C@@H]1CC(C)C)NC(=O)Cc1ccccc1` the Potency was inconclusive [rising, single point]. In the case of `Cc1ccc2c(c1)N(CC(=O)N1CCCCCC1)C(=O)CO2`, the Potency is reported as inconclusive [cytotoxic, partial curve, poor fit]. With `Cc1ccccc1SCC(=O)N1CCN(c2ccc(C(F)(F)F)cn2)CC1` the Potency was “inactive”. With `Cc1ccc(CN2C(=O)CCC2C(=O)NCCCN2CCCC(C)C2)cc1` (stereo not given) the activity, negative = less viability was inconclusive: 32%. In the case of `CCOc1ccc(Br)cc1S(=O)(=O)Nc1ncn[nH]1`, the Potency is reported as “inactive”. In the case of `COc1ccc(C(C)=O)cc1CSc1nnc(Nc2ccc(C)cc2)s1`, the Potency is reported as inconclusive [cytotoxic, single point]. With `CCN1CCN(c2ncc(C(=O)N3CCN(c4ccccc4OC)CC3)c3ccccc23)CC1` the Potency was “inactive”. For `COc1cc(NC(=O)c2ccccc2)c(OC)cc1NC(=O)CSc1[nH]c(=O)cc(C)c1C#N`, the Potency was inconclusive [cytotoxic, partial curve, poor fit]. In the case of `O=C(NCCN1CCC(n2c(=O)[nH]c3ccccc32)CC1)c1ccc(Cl)cc1`, the Potency is reported as inconclusive [cytotoxic, partial curve]. With `CC1=C(C(=O)Nc2ccccc2)C(c2ccco2)C(C#N)=C(SCC(N)=O)N1` (stereo not given) the Potency was inconclusive [cytotoxic, single point]. For `Cc1cc(C(F)F)n2nc(C(=O)Nc3ccc(S(=O)(=O)NC45CC6CC(CC(C6)C4)C5)cc3)nc2n1`, the Potency was inconclusive [cytotoxic, partial curve, poor fit]. For `Cc1cc(C)cc(-n2c(C)cc(/C=N/NC(=O)c3cccc([N+](=O)[O-])c3C)c2C)c1`, the Potency was inconclusive [cytotoxic, single point]. In the case of `CCCCn1c(NC(=O)c2ccccc2Cl)c(C#N)c2nc3ccccc3nc21`, the Potency is reported as active: 5.8 µM. In the case of `Cc1csc(NC(=O)CSc2ncnc3c2cnn3-c2ccccc2Cl)n1`, the Potency is reported as inconclusive [cytotoxic, single point]. With `Cc1ccc2nc(C3CCCCC3)c(Cc3cccc(F)c3)n2c1` the Potency was inconclusive [cytotoxic, single point]. With `COCC(C)NC(=O)CSc1nc2cc(S(=O)(=O)N3CCCCC3)ccc2o1` (stereo not given) the Potency was “inactive”. With `CNc1cc(-n2nc(C)cc2-c2ccccc2)ncn1` the Potency was “inactive”. With `CCN(c1cccc(C)c1)S(=O)(=O)c1ccc(-c2cc(C)no2)s1` the Potency was inconclusive [cytotoxic, full curve]. With `COC(=O)C(=Cc1ccc(OCc2ccc([N+](=O)[O-])cc2)c(OC)c1)C(=O)OC` the Potency was inconclusive [cytotoxic, partial curve, poor fit]. For `Cc1cc(C)cc(NC(=O)c2ccc3c(c2)CCN3S(C)(=O)=O)c1`, the Potency was “inactive”. With `CCOc1ccc(NC(=O)c2ccc(NC(=O)c3ccccc3Br)cc2)cc1` the Potency was “inactive”. For `COc1cc(CN2CCc3ccc(NC(=O)CCc4ccccc4OC)cc3C2)ccc1O`, the Potency was inconclusive [cytotoxic, single point].
